# About 16,000 (4.4%) of roughly 360,000 compounds were called active. This list was built around the results that the source calls inconclusive (neither active nor inactive); the mix of calls is not that of the screen. The call rests on the fitted dose curve; in most records, active means well fitted inhibition curve with a large enough effect; inconclusive means small, poorly fitted or top-dose-only effect; inactive means no such curve, though single readings can be large or run the other way. A potency beside an inconclusive call is a rough fit, not a confirmed value.
# Target: Bromodomain adjacent to zinc finger domain protein 2B (Homo sapiens) (UniProt Q9UIF8)
# Experiment: qHTS Assay for Inhibitors of BAZ2B; further: nearly all actives have a fitted effect of over 60% in size
# Conditions: AlphaScreen BAZ2B-H3K14Ac peptide displacement; activity change, negative = inhibition: at 114 µM (top of the series) unless noted
# Outline: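 In this displacement format the biotinylated H3(5-23) peptide acetylated at Lys14 serves as ligand at 50 nM, with BAZ2B at 50 nM in PBS pH 7.4 containing 0.01% Tween-20. Donor and acceptor beads are 10 ug/mL final.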
# On the % scale 0 is the no-effect control and ±100 the full control effect; potency means the concentration at half of the fitted maximal effect; tags describe the fitted curve by direction and shape.
# Sequence of UniProt Q9UIF8 (Q9UIF8 whole entry, looked up, the tested form may be a part): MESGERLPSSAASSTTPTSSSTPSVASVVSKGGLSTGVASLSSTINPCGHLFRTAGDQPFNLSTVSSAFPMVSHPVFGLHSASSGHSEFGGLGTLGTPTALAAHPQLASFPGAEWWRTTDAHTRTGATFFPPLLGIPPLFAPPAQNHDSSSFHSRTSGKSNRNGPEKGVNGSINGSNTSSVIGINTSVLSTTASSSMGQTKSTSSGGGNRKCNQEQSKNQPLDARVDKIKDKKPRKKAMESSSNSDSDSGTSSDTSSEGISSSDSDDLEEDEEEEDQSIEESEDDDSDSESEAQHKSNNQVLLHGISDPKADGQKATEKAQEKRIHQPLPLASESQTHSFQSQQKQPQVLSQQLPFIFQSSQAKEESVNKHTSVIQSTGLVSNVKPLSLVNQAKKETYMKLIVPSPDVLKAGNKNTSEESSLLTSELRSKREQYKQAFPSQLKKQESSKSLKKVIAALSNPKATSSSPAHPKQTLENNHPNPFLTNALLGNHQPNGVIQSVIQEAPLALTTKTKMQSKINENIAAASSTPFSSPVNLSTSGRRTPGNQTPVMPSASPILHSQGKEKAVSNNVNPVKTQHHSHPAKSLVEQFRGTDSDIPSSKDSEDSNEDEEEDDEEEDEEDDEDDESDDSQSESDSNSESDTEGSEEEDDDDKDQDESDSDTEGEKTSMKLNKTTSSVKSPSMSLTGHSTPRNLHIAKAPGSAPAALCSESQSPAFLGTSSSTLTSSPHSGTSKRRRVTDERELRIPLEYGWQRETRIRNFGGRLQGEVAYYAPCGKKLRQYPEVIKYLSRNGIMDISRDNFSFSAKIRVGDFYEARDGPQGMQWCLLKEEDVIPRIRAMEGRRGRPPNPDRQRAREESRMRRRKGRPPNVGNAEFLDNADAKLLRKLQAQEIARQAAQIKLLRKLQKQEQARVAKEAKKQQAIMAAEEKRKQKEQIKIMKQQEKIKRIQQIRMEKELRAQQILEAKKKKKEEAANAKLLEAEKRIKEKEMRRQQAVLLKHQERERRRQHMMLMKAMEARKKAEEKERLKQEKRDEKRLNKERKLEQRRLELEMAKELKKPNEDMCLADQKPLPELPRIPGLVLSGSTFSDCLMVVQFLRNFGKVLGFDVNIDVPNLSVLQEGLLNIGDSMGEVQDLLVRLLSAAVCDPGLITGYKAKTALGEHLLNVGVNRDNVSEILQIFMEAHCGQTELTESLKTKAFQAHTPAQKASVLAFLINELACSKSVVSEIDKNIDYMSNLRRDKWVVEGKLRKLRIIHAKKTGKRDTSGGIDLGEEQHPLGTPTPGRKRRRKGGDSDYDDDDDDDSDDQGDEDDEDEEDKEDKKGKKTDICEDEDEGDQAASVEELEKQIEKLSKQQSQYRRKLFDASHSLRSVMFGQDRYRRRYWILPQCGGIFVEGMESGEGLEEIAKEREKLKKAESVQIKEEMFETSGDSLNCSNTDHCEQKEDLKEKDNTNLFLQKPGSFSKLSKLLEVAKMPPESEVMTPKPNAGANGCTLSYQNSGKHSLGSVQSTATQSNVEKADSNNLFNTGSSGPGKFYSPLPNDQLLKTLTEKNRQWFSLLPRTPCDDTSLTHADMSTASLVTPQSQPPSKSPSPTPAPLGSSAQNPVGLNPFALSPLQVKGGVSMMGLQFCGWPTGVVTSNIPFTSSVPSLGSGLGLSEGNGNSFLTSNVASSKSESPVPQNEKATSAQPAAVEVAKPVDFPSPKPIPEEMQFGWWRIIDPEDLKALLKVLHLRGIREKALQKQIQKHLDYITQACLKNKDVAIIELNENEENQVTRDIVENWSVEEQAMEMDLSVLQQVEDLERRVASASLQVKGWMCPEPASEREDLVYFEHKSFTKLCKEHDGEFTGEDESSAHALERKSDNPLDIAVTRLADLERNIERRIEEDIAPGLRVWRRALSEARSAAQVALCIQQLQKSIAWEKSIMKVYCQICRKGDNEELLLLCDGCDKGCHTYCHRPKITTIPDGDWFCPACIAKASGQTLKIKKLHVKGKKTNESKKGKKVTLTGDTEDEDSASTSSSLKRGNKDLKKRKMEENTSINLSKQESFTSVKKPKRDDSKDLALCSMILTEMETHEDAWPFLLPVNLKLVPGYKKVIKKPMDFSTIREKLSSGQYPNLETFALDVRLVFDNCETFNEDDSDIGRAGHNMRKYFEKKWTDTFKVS
Compound,"activity change, negative = inhibition",Potency
C=CCn1c(=O)c2ccccc2n2c(SCC(=O)O)nnc12,inactive: -0.217%,
N#C/C(=C/c1cn(CC(=O)O)c2ccccc12)C(=O)Nc1ccccc1,inactive: -27.6%,
CNc1nc(N/N=C/c2cc3c(cc2[N+](=O)[O-])OCO3)nc(Nc2ccccc2)n1,,"inconclusive: 50.1 µM [inhibitor, partial curve]"
COc1ccc(N(CC(=O)Nc2ccccc2C(F)(F)F)C2=NC3CS(=O)(=O)CC3S2)cc1 (stereo not given),inactive: -0.337%,
CN(C)c1ccc(NC(=O)c2cccc(C(=O)Nc3ccc(N(C)C)cc3)n2)cc1,,active: 7.94 µM
O=C(N/N=C/c1ccc(O)c(O)c1)c1cccc(S(=O)(=O)N2CCCCC2)c1,,"inconclusive: 70.8 µM [inhibitor, single point]"
COc1cc(/C=C2\SC(=O)N(Cc3ccc(F)cc3)C2=O)cc([N+](=O)[O-])c1O,,active: 8.91 µM
Oc1ccc(O)c(Cc2nc3ccccc3s2)c1,,"inconclusive: 79.4 µM [inhibitor, single point]"
Cc1ccc(C2CCN(C(=S)NC(C)C)C2)cc1 (stereo not given),inactive: -6.67%,
CC(=O)N1CCc2c(sc(NC(=O)C3CC3)c2-c2nc3ccccc3s2)C1,inactive: 6.39%,
Cc1ccc(-c2cc(N)n(Cc3ccc(Cl)cc3)n2)cc1,,"inconclusive: 25.1 µM [inhibitor, single point]"
COc1ccc(C2=NN(C(=O)COc3ncnc4ccccc34)C(c3ccco3)C2)cc1 (stereo not given),inactive: -26.2%,
N#C/C(=C/c1cccn1-c1cccc(C(=O)O)c1)c1ccc(Cl)cc1,,active: 44.7 µM
Cc1cc(OCCN2CCCC2)ccc1[N+](=O)[O-],,"inconclusive: 89.1 µM [inhibitor, single point]"
CC(C)(C)C(=O)Nc1ccc(N2CCCC2)cc1,,"inconclusive: 79.4 µM [inhibitor, single point]"
CC1CCCCN1C(=O)Cc1ccc(Cl)cc1 (stereo not given),inactive: -6.42%,
CCOc1cc(-c2cn(S(=O)(=O)c3cccc4nsnc34)nc2N)cc(OCC)c1OCC,,"inconclusive: 39.8 µM [inhibitor, full curve, poor fit]"
Cc1cc(Nc2ccccc2F)n2nc(Cc3ccc(Cl)cc3)nc2n1,inactive: -0.904%,
O=C(CN(c1cccc(Cl)c1)S(=O)(=O)c1ccc(Cl)cc1)NCc1ccccn1,,"inconclusive: 70.8 µM [inhibitor, single point]"
COc1ccc(C(=O)NCc2ccc3c(c2)CCN3C(C)=O)cc1OC,inactive: -12.9%,
O=C(CCNc1cccc(F)c1)c1cccc([N+](=O)[O-])c1,,active: 35.5 µM
Cc1ccc2c(c1)/C(=N/N1C(=O)c3ccccc3C1=O)C(=O)N2,inactive: 0.25%,
CN(C)S(=O)(=O)c1ccc(Cl)c(NC(=O)COC(=O)/C=C/c2ccco2)c1,,active: 56.2 µM
CCc1nn(CCCN2CCN(c3cccc(Cl)c3)CC2)c(=O)n1CCOc1ccccc1,,"inconclusive: 56.2 µM [inhibitor, partial curve]"

Compound,"activity change, negative = inhibition",Potency
COCCN=c1scc(-c2cc(OC)ccc2OC)n1/N=C/c1c[nH]c2ccccc12,,active: 11.2 µM
CC1=CC(c2ccccc2)n2nc(N3C(=O)CCC3=O)nc2N1 (stereo not given),,"inconclusive: 79.4 µM [inhibitor, single point]"
COCC(=O)Nc1nc2n(n1)C(c1ccc(Cl)cc1)CC(c1ccc(OC)cc1)N2 (stereo not given),,"inconclusive: 89.1 µM [inhibitor, single point]"
CSc1ccccc1C(=O)Nc1ncn[nH]1,,"inconclusive: 70.8 µM [inhibitor, single point]"
COc1ccc2c(c1)c(=O)oc1cc(OCC(=O)NC3CC3)ccc12,,"inconclusive: 89.1 µM [inhibitor, single point]"
CC(C)c1nn2c(=O)cc(COC(=O)c3cccc(NC(=O)c4ccccc4F)c3)nc2s1,inactive: -6.68%,
Cc1cc(C)c2nc(SCC(=O)NCC3CCCO3)c(C#N)cc2c1 (stereo not given),,"inconclusive: 6.31 µM [inhibitor, full curve, poor fit]"
Oc1cccc(/C=N/N(Cc2ccccc2)c2ccccc2)c1,,"inconclusive: 39.8 µM [inhibitor, partial curve]"
CC(C)SC1=NC(C)(C)C=C(/C=C/c2ccc(Cl)cc2Cl)N1,,"inconclusive: 79.4 µM [inhibitor, single point]"
O=C(Nc1cccc(Cl)c1)C(Cc1ccccc1)n1cccc1 (stereo not given),inactive: -0.0746%,
COc1ccc(C(C[N+](=O)[O-])c2c(C)[nH]c3ccccc23)cc1OC (stereo not given),,"inconclusive: 50.1 µM [inhibitor, partial curve]"
O=C(c1ccco1)N1CCN(S(=O)(=O)Cc2ccccc2Cl)CC1,,"inconclusive: 89.1 µM [inhibitor, single point]"
Brc1ccc2c(c1)C(c1cccnc1)=NNC(c1cccs1)=N2,,"inconclusive: 50.1 µM [inhibitor, partial curve]"
CC(=O)Oc1ccc2c(=O)c(Oc3ccccc3)coc2c1OC(C)=O,,active: 50.1 µM
CC(Oc1ccc(Br)cc1)C(=O)Nc1nc(-c2ccccn2)cs1 (stereo not given),,active: 56.2 µM
Cc1ccc(NC(=S)NCCc2ccccc2)nc1,inactive: -32.2%,
Nc1ccc(Br)cc1C(NCC(=O)O)c1ccccc1 (stereo not given),,"inconclusive: 89.1 µM [inhibitor, single point]"
Cc1ccc(/C=C/C(=O)NCCCN2CCN(CCCNC(=O)/C=C/c3ccc(C)o3)CC2)o1,,"inconclusive: 79.4 µM [inhibitor, single point]"
CN1CCN(S(=O)(=O)c2ccc(Br)c3ccccc23)CC1,,"inconclusive: 89.1 µM [inhibitor, single point]"
CN(C)CCCN(C(=O)COc1ccc(Cl)cc1)c1nc2cc3c(cc2s1)OCO3,,"inconclusive: 79.4 µM [inhibitor, partial curve]"
CC(C)Cc1nnc(NC(=O)Cc2cccs2)s1,,active: 39.8 µM
CC(C)(C)CC(C)(C)NC(=S)NC1CCN(Cc2ccccc2)CC1,,"inconclusive: 44.7 µM [inhibitor, partial curve]"
COc1ccc(-c2nc3ccccc3[nH]2)cc1,inactive: 8.81%,
COc1cccc(CNC(=O)CN2C(=O)NC(c3ccccc3)(c3ccccc3)C2=O)c1,inactive: 6.55%,

Compound,"activity change, negative = inhibition",Potency
CN(CCNC(=O)c1ccc(/C=N/O)nc1)Cc1ccccc1,,"inconclusive: 79.4 µM [inhibitor, single point]"
Cc1ccnc(NC(=O)CN2C(=O)c3ccccc3C2=O)c1,,"inconclusive: 3.98 µM [inhibitor, single point]"
Cc1ccc(-c2nnc(-c3ccccc3)c(N3CCOCC3)n2)cc1,,"inconclusive: 89.1 µM [inhibitor, single point]"
Cc1ccc(N(C)S(=O)(=O)c2c(C)noc2/C=C/N(C)C)cc1,,"inconclusive: 50.1 µM [inhibitor, partial curve]"
Cc1c(C(=O)N2CCCCCC2)c(S(=O)(=O)Nc2ccc(OC(F)(F)F)cc2)c(C)n1C,inactive: -33.4%,
COC(=O)c1cccc(NC(=O)c2cc3sccc3n2C)c1,,"inconclusive: 35.5 µM [inhibitor, partial curve]"
O=[N+]([O-])c1cccc(/C([O-])=C(/C(=S)Nc2ccccc2F)[n+]2ccccc2)c1,,"inconclusive: 50.1 µM [inhibitor, partial curve]"
O=C1Nc2ccc(S(=O)(=O)N3CCCC3)c3cccc1c23,,"inconclusive: 89.1 µM [inhibitor, single point]"
CC(=O)OC[C@H]1O[C@@H](O/N=C/[C@@H](C)[C@H](OCc2ccccc2)C(C)C)[C@H](OC(C)=O)[C@@H](OC(C)=O)[C@@H]1OC(C)=O,inactive: -9.11%,
Cc1c(O)ccc(-c2n[nH]c(C(=O)O)c2-c2nc3ccccc3s2)c1O,,"inconclusive: 50.1 µM [inhibitor, partial curve]"
CCn1c(O)c(N=NC(=O)C(O)c2ccccc2)c2ccccc21 (stereo not given),,"inconclusive: 79.4 µM [inhibitor, single point]"
Cc1ccc(NC(=O)CCc2c(C)[nH]c(=O)c(C#N)c2C)cc1,,"inconclusive: 89.1 µM [inhibitor, single point]"
Cc1ccc(C)c(N2CCN(C(=O)CN3CCSc4ccccc43)CC2)c1,,"inconclusive: 35.5 µM [inhibitor, partial curve]"
Cn1c(C(=O)NCCCN2CCN(c3cccc(Cl)c3)CC2)cc2c(=O)n(C)c3ccccc3c21,,"inconclusive: 1.12 µM [inhibitor, full curve, poor fit]"
CCCCCn1c(SCC2CCCO2)nc2cc(C(=O)N3CCC(C(N)=O)CC3)ccc2c1=O (stereo not given),,"inconclusive: 89.1 µM [inhibitor, single point]"
CCCN1C(=S)SC(C)(C)C1/[N+]([O-])=C/c1ccc(S(=O)(=O)NC)cc1 (stereo not given),,"inconclusive: 89.1 µM [inhibitor, single point]"
COc1ccc(NC(=O)CCc2nc3cccnc3n2-c2ccccc2)c(OC)c1,,"inconclusive: 39.8 µM [inhibitor, partial curve]"
S=C(NCc1ccc2c(c1)OCO2)Nc1ccc(-c2nc3ccccc3[nH]2)cc1,,"inconclusive: 39.8 µM [inhibitor, full curve]"
Cc1ccccc1Nc1nc(N)nc(CSc2nncn2C)n1,,"inconclusive: 89.1 µM [inhibitor, single point]"
O=C(CSc1nnc(-c2cc(-c3cccs3)nc3ccccc23)o1)NC1CCCCC1,,"inconclusive: 8.91 µM [inhibitor, single point]"
CSCCC(NS(=O)(=O)c1ccccc1F)C(=O)N1CC=C(c2ccccc2)CC1 (stereo not given),,"inconclusive: 39.8 µM [inhibitor, partial curve]"
Cc1ccc(Nc2ccc(C(=O)O)cc2[N+](=O)[O-])cc1,,"inconclusive: 70.8 µM [inhibitor, single point]"
